# Data as given in the antibiotic and cytotoxicity screens of Wong et al. (2023).
# The other results are listed elsewhere or left out.
# System: S. aureus RN4220
# Assay: growth inhibition call (relative growth <= 0.2)
# Details: 50 µM
row,SMILES,growth inhibition call
1,Cc1cccc(S(=O)(=O)N2C[C@@H](O)COC[C@H]3O[C@@H](CC(=O)N4CCN(C)CC4)CC[C@@H]32)c1,inactive
2,Cc1noc(C)c1S(=O)(=O)N(C)C[C@@H]1Oc2ccc(NC(=O)Nc3ccc4c(c3)OCO4)cc2CC(=O)N([C@@H](C)CO)C[C@H]1C,inactive
3,C[C@@H]1CN([C@H](C)CO)C(=O)c2cccc(NC(=O)CCCCCC(=O)Nc3ccccc3N)c2O[C@@H]1CN(C)Cc1ccc(-c2ccccc2)cc1,inactive
4,C[C@H](O)C#Cc1cnc2c(c1)C(=O)N([C@H](C)CO)C[C@H](C)[C@@H](CN(C)C(=O)Nc1ccc(C(F)(F)F)cc1)O2,inactive
5,CC(C)Oc1ccc(S(=O)(=O)N2CCN(c3ccc(-c4ncco4)c(OCC(=O)O)c3)CC2)cc1,inactive
6,C[C@H](CO)N1C[C@H](C)[C@@H](CN(C)Cc2ccc3c(c2)OCO3)Oc2c(NC(=O)c3cnccn3)cccc2C1=O,inactive
7,C[C@H]1CN([C@@H](C)CO)C(=O)Cc2cc(NC(=O)CCN3CCOCC3)ccc2O[C@H]1CN(C)Cc1ccncc1,inactive
8,C[C@H]1CN([C@@H](C)CO)C(=O)Cc2cc(NC(=O)CCN3CCOCC3)ccc2O[C@@H]1CN(C)Cc1ccccc1,inactive
9,C[C@H]1CN([C@@H](C)CO)C(=O)c2cc(C#CC3CCCCC3)cnc2O[C@@H]1CN(C)C(=O)Cc1ccccn1,inactive
10,Nc1ccccc1C(=O)N[C@H]1CCCCNC1=O,inactive
11,Cc1ccc(CNc2ccc3c(c2)ncn3C2CCCCC2)cc1,active
12,Cc1ccc(S(=O)(=O)N[C@@H](Cc2ccccc2)C(=O)NCCCn2cc(-c3cccc(/C=C/C(=O)NO)c3)nn2)cc1,inactive
13,CNC(=O)[C@H]1C[C@@H]2CN(Cc3cnn(C)c3)C[C@@H]2N1C,inactive
14,O=C(C[C@H]1CC[C@H]2[C@@H](COC[C@@H](O)CN2S(=O)(=O)c2ccc(F)cc2)O1)NCc1ccc(Cl)c(Cl)c1,inactive
15,C=C1COC(=O)[C@@H]2[C@@H](CO)[C@@H](O)C[C@H]12,inactive
16,COc1ccc(S(=O)(=O)N2CCO[C@@H]2CNC(=O)C(=O)NCc2ccncc2)cc1,inactive
17,C[C@H](CO)N1C[C@H](C)[C@H](CN(C)C(=O)Nc2ccc3c(c2)OCO3)OCCCC[C@H](C)Oc2ccc(NS(=O)(=O)c3ccccc3)cc2C1=O,inactive
18,C[C@@H]1CN([C@@H](C)CO)C(=O)c2cccc(NC(=O)c3ccc(-c4nccs4)cc3)c2O[C@@H]1CN(C)CC1CCCCC1,inactive
19,CCc1nc2ccc(C(=O)Nc3ccc(OC)c(OC)c3)cn2c1N(CC)Cc1cccc(Br)c1,inactive
20,C[C@H]1CN([C@@H](C)CO)C(=O)c2c(c3ccccc3n2C)-c2ccccc2CO[C@H]1CN(C)Cc1ccc(F)cc1,inactive

row,SMILES,growth inhibition call
1,CC(C)Cn1c(=O)[nH]c2c1c(=O)n(C)c(=O)n2C,inactive
2,C[C@H]1CN([C@@H](C)CO)C(=O)CCCn2cc(nn2)CO[C@H]1CN(C)S(=O)(=O)c1ccc(Oc2ccccc2)cc1,inactive
3,C[C@@H]1CCCCO[C@@H](CN(C)C(=O)Nc2cccc3ccccc23)[C@H](C)CN([C@H](C)CO)C(=O)c2cc(NC(=O)NC3CCCCC3)ccc2O1,inactive
4,C[C@H](O)C#Cc1ccc2c(c1)O[C@@H](CN(C)C(=O)CN(C)C)[C@H](C)CN([C@H](C)CO)S2(=O)=O,inactive
5,COc1ccc2c3c([nH]c2c1)[C@H](CO)N(C[C@]13CCN(CC1)C(=O)c1ccncc1)C(=O)c1ccncc1,inactive
6,CCNC(=O)C[C@H]1CC[C@@H](NC(=O)C2CC2)[C@@H](CO)O1,inactive
7,CCC(=O)N1CCC[C@](C)(C(=O)NS(=O)(=O)c2ccc(S(C)(=O)=O)cc2)C1,inactive
8,COc1ccc(S(=O)(=O)Nc2ccc3c(c2)C(=O)N([C@@H](C)CO)C[C@@H](C)[C@@H](CN(C)C(=O)c2ccccc2)OCCCC[C@@H](C)O3)cc1,inactive
9,CC1(CO)COC1,inactive
10,COc1ccc(CN(C)C[C@@H]2OCCCC[C@@H](C)Oc3ccc(NS(=O)(=O)c4cccs4)cc3C(=O)N([C@@H](C)CO)C[C@H]2C)cc1,inactive
11,O=C(C[C@@H]1C[C@@H]2c3cc(NS(=O)(=O)c4ccc(F)cc4)ccc3O[C@@H]2[C@@H](CO)O1)N1CCOCC1,inactive
12,Cc1noc(C)c1NC(=O)Nc1ccc2c(c1)C(=O)N([C@H](C)CO)C[C@@H](C)[C@H](CN(C)C(=O)Nc1ccc(F)cc1)OCCCC[C@H](C)O2,inactive
13,COc1ccc(NC(=O)Nc2ccc3c(c2)C(=O)N([C@H](C)CO)C[C@@H](C)[C@@H](CN(C)C(=O)NC2CCCCC2)OCCCC[C@@H](C)O3)cc1,inactive
14,O=C1NN=COc2ccccc21,inactive
15,CC1CC(=O)NN=C1c1ccc(NN=C(C#N)C#N)cc1 (stereo not given),inactive
16,C[C@@H]1CN([C@@H](C)CO)C(=O)c2cccc(NC(=O)Nc3ccc(C(F)(F)F)cc3)c2O[C@H]1CN(C)Cc1ccc(Cl)c(Cl)c1,inactive
17,CC(=O)N[C@H]1[C@H](Oc2nc3cc(C)ccc3o2)O[C@H](CO)[C@@H](O)[C@@H]1O,inactive
18,CC(C)(C)c1cc(NC(=O)Nc2ccc(-c3cn4c(n3)sc3cc(OCCN5CCOCC5)ccc34)cc2)no1,inactive
19,CC[C@H](C)C[C@H](C)CCCCCCCCC(=O)N[C@H]1C[C@@H](O)[C@@H](NCCN)NC(=O)[C@@H]2[C@@H](O)CCN2C(=O)[C@H]([C@H](O)CCN)NC(=O)[C@H]([C@H](O)[C@@H](O)c2ccc(O)cc2)NC(=O)[C@@H]2C[C@@H](O)CN2C(=O)[C@H]([C@@H](C)O)NC1=O,inactive
20,C[C@H]1CN([C@@H](C)CO)C(=O)c2cccc(NC(=O)CCCCCC(=O)Nc3ccccc3N)c2O[C@H]1CN(C)C(=O)Nc1ccc(C(F)(F)F)cc1,inactive
